In the supplement of paper PMC12423691 one finds AlphaScreen luminescence signal data, which are given here for eleven molecules.

The labels stand for the following.
B1: TERF2IP, Q9NYB0 (protein)
chain: MAEAMDLGKDPNGPTHSSTLFVRDDGSSMSFYVRPSPAKRRLSTLILHGGGTVCRVQEPGAVLLAQPGEALAEASGDFISTQYILDCVERNERLELEAYRLGPASAADTGSEAKPGALAEGAAEPEPQRHAGRIAFTDADDVAILTYVKENARSPSSVTGNALWKAMEKSSLTQHSWQSLKDRYLKHLRGQEHKYLLGDAPVSPSSQKLKRKAEEDPEAADSGEPQNKRTPDLPEEEYVKEEIQENEEAVKKMLVEATREFEEVVVDESPPDFEIHITMCDDDPPTPEEDSETQPDEEEEEEEEKVSQPEVGAAIKIIRQLMEKFNLDLSTVTQAFLKNSGELEATSAFLASGQRADGYPIWSRQDDIDLQKDDEDTREALVKKFGAQNVARRIEFRKK
B2: FUBP1, Q96AE4 (protein)
chain: MADYSTVPPPSSGSAGGGGGGGGGGGVNDAFKDALQRARQIAAKIGGDAGTSLNSNDYGYGGQKRPLEDGDQPDAKKVAPQNDSFGTQLPPMHQQQSRSVMTEEYKVPDGMVGFIIGRGGEQISRIQQESGCKIQIAPDSGGLPERSCMLTGTPESVQSAKRLLDQIVEKGRPAPGFHHGDGPGNAVQEIMIPASKAGLVIGKGGETIKQLQERAGVKMVMIQDGPQNTGADKPLRITGDPYKVQQAKEMVLELIRDQGGFREVRNEYGSRIGGNEGIDVPIPRFAVGIVIGRNGEMIKKIQNDAGVRIQFKPDDGTTPERIAQITGPPDRCQHAAEIITDLLRSVQAGNPGGPGPGGRGRGRGQGNWNMGPPGGLQEFNFIVPTGKTGLIIGKGGETIKSISQQSGARIELQRNPPPNADPNMKLFTIRGTPQQIDYARQLIEEKIGGPVNPLGPPVPHGPHGVPGPHGPPGPPGPGTPMGPYNPAPYNPGPPGPAPHGPPAPYAPQGWGNAYPHWQQQAPPDPAKAGTDPNSAAWAAYYAHYYQQQAQPPPAAPAGAPTTTQTNGQGDQQNPAPAGQVDYTKAWEEYYKKMGQAVPAPTGAPPGGQPDYSAAWAEYYRQQAAYYAQTSPQGMPQHPPAPQGQ
B3: DMRTA1, Q5VZB9 (protein)
chain: MERSQCGSRDRGVSGRPHLAPGLVVAAPPPPSPALPVPSGMQVPPAFLRPPSLFLRAAAAAAAAAAATSGSGGCPPAPGLESGVGAVGCGYPRTPKCARCRNHGVVSALKGHKRFCRWRDCACAKCTLIAERQRVMAAQVALRRQQAQEESEARGLQRLLCSGLSWPPGGRASGGGGRAENPQSTGGPAAGAALGLGALRQASGSATPAFEVFQQDYPEEKQEQKESKCESCQNGQEELISKSHQLYLGSSSRSNGVIGKQSIGSSISEYSNKPDSILSPHPGEQSGGEESPRSLSSSDLESGNESEWVKDLTATKASLPTVSSRPRDPLDILTKIFPNYRRSRLEGILRFCKGDVVQAIEQVLNGKEHKPDNRNLANSEELENTAFQRASSFSLAGIGFGTLGNKSAFSPLQTTSASYGGDSSLYGVNPRVGISPLRLAYSSAGRGLSGFMSPYLTPGLVPTLPFRPALDYAFSGMIRDSSYLSSKDSITCGRLYFRPNQDNP
B4: NR2F2, P24468 (protein)
chain: MAMVVSTWRDPQDEVPGSQGSQASQAPPVPGPPPGAPHTPQTPGQGGPASTPAQTAAGGQGGPGGPGSDKQQQQQHIECVVCGDKSSGKHYGQFTCEGCKSFFKRSVRRNLSYTCRANRNCPIDQHHRNQCQYCRLKKCLKVGMRREAVQRGRMPPTQPTHGQFALTNGDPLNCHSYLSGYISLLLRAEPYPTSRFGSQCMQPNNIMGIENICELAARMLFSAVEWARNIPFFPDLQITDQVALLRLTWSELFVLNAAQCSMPLHVAPLLAAAGLHASPMSADRVVAFMDHIRIFQEQVEKLKALHVDSAEYSCLKAIVLFTSDACGLSDVAHVESLQEKSQCALEEYVRSQYPNQPTRFGKLLLRLPSLRTVSSSVIEQLFFVRLVGKTPIETLIRDMLLSGSSFNWPYMAIQ
B5: ZNF334, Q9HCZ1 (protein)
chain: MKMKKFQIPVSFQDLTVNFTQEEWQQLDPAQRLLYRDVMLENYSNLVSVGYHVSKPDVIFKLEQGEEPWIVEEFSNQNYPDIDDALEKNKEIQDKHLTQTVFFSNKTLITERENVFGKTLNLGMNSVPSRKMPYKCNPGGNSLKTNSEVIVAKKSKENRKIPDGYSGFGKHEKSHLGMKKYRYNPMRKASNQNENLILHQNIQILKQPFDYNKCGKTFFKRAILITQKGRQTERKPNECNECRKTFSKRSTLIVHQRIHTGEKPYVCSDCRKTFRVKTSLTRHRRIHTGERPYECSECRKTFIDKSALIVHQKIHGGEKSYECNECGKTFFRKSALAEHFRSHTGEKPYECKECGNAFSKKSYLVVHQRTHRGEKPNECKECGKTFFCQSALTAHQRIHTGEKPYECSECEKTFFCQSALNVHRRSHTGEKPYECSQCGKFLCTKSALIAHQITHRGKKSYECNECGKFFCHKSTLTIHQRTHTGEKHGVFNKCGRISIVKSNCSQCKRMNTKENLYECSEHGHAVSKNSHLIVHQRTIWERPYECNECGRTYCRKSALTHHQRTHTGQRPYECNECGKTFCQKFSFVEHQRTHTGEKPYECNECGKSFCHKSAFRVHRRIHTGEKPYECNQCGKTYRRLWTLTEHQKIHTGEKPYECNKCEKTFRHKSNFLLHQKSHKE
B6: NDN, Q99608 (protein)
chain: MSEQSKDLSDPNFAAEAPNSEVHSSPGVSEGVPPSATLAEPQSPPLGPTAAPQAAPPPQAPNDEGDPKALQQAAEEGRAHQAPSAAQPGPAPPAPAQLVQKAHELMWYVLVKDQKKMIIWFPDMVKDVIGSYKKWCRSILRRTSLILARVFGLHLRLTSLHTMEFALVKALEPEELDRVALSNRMPMTGLLLMILSLIYVKGRGARESAVWNVLRILGLRPWKKHSTFGDVRKLITEEFVQMNYLKYQRVPYVEPPEYEFFWGSRASREITKMQIMEFLARVFKKDPQAWPSRYREALEEARALREANPTAHYPRSSVSED
B7: RHOXF1, Q8NHV9 (protein)
chain: MARSLVHDTVFYCLSVYQVKISPTPQLGAASSAEGHVGQGAPGLMGNMNPEGGVNHENGMNRDGGMIPEGGGGNQEPRQQPQPPPEEPAQAAMEGPQPENMQPRTRRTKFTLLQVEELESVFRHTQYPDVPTRRELAENLGVTEDKVRVWFKNKRARCRRHQRELMLANELRADPDDCVYIVVD
B8: ATF4, P18848 (protein)
chain: MTEMSFLSSEVLVGDLMSPFDQSGLGAEESLGLLDDYLEVAKHFKPHGFSSDKAKAGSSEWLAVDGLVSPSNNSKEDAFSGTDWMLEKMDLKEFDLDALLGIDDLETMPDDLLTTLDDTCDLFAPLVQETNKQPPQTVNPIGHLPESLTKPDQVAPFTFLQPLPLSPGVLSSTPDHSFSLELGSEVDITEGDRKPDYTAYVAMIPQCIKEEDTPSDNDSGICMSPESYLGSPQHSPSTRGSPNRSLPSPGVLCGSARPKPYDPPGEKMVAAKVKGEKLDKKLKKMEQNKTAATRYRQKKRAEQEALTGECKELEKKNEALKERADSLAKEIQYLKDLIEEVRKARGKKRVP
B9: SLC30A9, Q6PML9 (protein)
chain: MLPGLAAAAAHRCSWSSLCRLRLRCRAAACNPSDRQEWQNLVTFGSFSNMVPCSHPYIGTLSQVKLYSTNVQKEGQGSQTLRVEKVPSFETAEGIGTELKAPLKQEPLQVRVKAVLKKREYGSKYTQNNFITGVRAINEFCLKSSDLEQLRKIRRRSPHEDTESFTVYLRSDVEAKSLEVWGSPEALAREKKLRKEAEIEYRERLFRNQKILREYRDFLGNTKPRSRTASVFFKGPGKVVMVAICINGLNCFFKFLAWIYTGSASMFSEAIHSLSDTCNQGLLALGISKSVQTPDPSHPYGFSNMRYISSLISGVGIFMMGAGLSWYHGVMGLLHPQPIESLLWAYCILAGSLVSEGATLLVAVNELRRNARAKGMSFYKYVMESRDPSTNVILLEDTAAVLGVIIAATCMGLTSITGNPLYDSLGSLGVGTLLGMVSAFLIYTNTEALLGRSIQPEQVQRLTELLENDPSVRAIHDVKATDLGLGKVRFKAEVDFDGRVVTRSYLEKQDFDQMLQEIQEVKTPEELETFMLKHGENIIDTLGAEVDRLEKELKKRNPEVRHVDLEIL
B10: OPRD1, P41143 (protein)
chain: MEPAPSAGAELQPPLFANASDAYPSACPSAGANASGPPGARSASSLALAIAITALYSAVCAVGLLGNVLVMFGIVRYTKMKTATNIYIFNLALADALATSTLPFQSAKYLMETWPFGELLCKAVLSIDYYNMFTSIFTLTMMSVDRYIAVCHPVKALDFRTPAKAKLINICIWVLASGVGVPIMVMAVTRPRDGAVVCMLQFPSPSWYWDTVTKICVFLFAFVVPILIITVCYGLMLLRLRSVRLLSGSKEKDRSLRRITRMVLVVVGAFVVCWAPIHIFVIVWTLVDIDRRDPLVVAALHLCIALGYANSSLNPVLYAFLDENFKRCFRQLCRKPCGRPDPSSFSRAREATARERVTACTPSDGPGGGAAA
B11: MBTPS2, O43462 (protein)
chain: MIPVSLVVVVVGGWTVVYLTDLVLKSSVYFKHSYEDWLENNGLSISPFHIRWQTAVFNRAFYSWGRRKARMLYQWFNFGMVFGVIAMFSSFFLLGKTLMQTLAQMMADSPSSYSSSSSSSSSSSSSSSSSSSSSSSLHNEQVLQVVVPGINLPVNQLTYFFTAVLISGVVHEIGHGIAAIREQVRFNGFGIFLFIIYPGAFVDLFTTHLQLISPVQQLRIFCAGIWHNFVLALLGILALVLLPVILLPFYYTGVGVLITEVAEDSPAIGPRGLFVGDLVTHLQDCPVTNVQDWNECLDTIAYEPQIGYCISASTLQQLSFPVRAYKRLDGSTECCNNHSLTDVCFSYRNNFNKRLHTCLPARKAVEATQVCRTNKDCKKSSSSSFCIIPSLETHTRLIKVKHPPQIDMLYVGHPLHLHYTVSITSFIPRFNFLSIDLPVVVETFVKYLISLSGALAIVNAVPCFALDGQWILNSFLDATLTSVIGDNDVKDLIGFFILLGGSVLLAANVTLGLWMVTAR

Some of the results follow. Binding of human transcription factors and regulators to the viral nucleoprotein by AlphaScreen, crude cell-free proteins, amounts not normalised, one pass. Fold of the Venus control; higher = more signal. No active / inactive call. Single-pass screen; sequences are the whole Swiss-Prot entries looked up by name.

In the assay the target is nucleoprotein N of Crimean-Congo hemorrhagic fever virus. Nature of the assay: AlphaScreen luminescence signal relative to Venus negative control (fold); higher = stronger binding to CCHFV N. The procedure:
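AlphaScreen binding of cell-free made, FLAG-GST-tagged human transcription factors and regulators (crude translation products) to biotinylated N protein; signal as fold of the FLAG-GST-Venus control. One pass.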
Take B1: the AlphaScreen luminescence signal stood at 1.44.
Molecule B2 displayed an AlphaScreen luminescence signal of 1.67.
With B3 the figure was 2.42.
For B4 the value was 2.51.
As for B5, the AlphaScreen luminescence signal turned out to be 3.44.
For B6 the value was 7.72.
With B7 the figure was 7.21; with B8, 2.56.
Turning to B9, the AlphaScreen luminescence signal turned out to be 2.56.
For B10 the value was 2.74; for B11, 2.84.
